Results published in the supplement of paper PMC10498489.
In all, about 2,300 compounds went through this assay and about 330 (14%) showed activity.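 Rule for the calls: active = median modified Z-score above 1.96; inactive = 1.96 or below.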 The entries are a selection whose mix differs from that of the whole data set.

Each compound was assayed on HepG2 Srxn1-GFP reporter cells (+30 nM CDDO-Me) (assay: Srxn1-GFP intensity median modified Z-score relative to plate median; higher = stronger NRF2 / oxidative stress reporter activation, active = hit call of the paper). Details: 10 µM; exposure time: 24h.
Outline: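 Per-cell cytoplasmic GFP was measured on confocal images of formaldehyde-fixed, Hoechst-stained HepG2 Srxn1-GFP BAC reporter cells, excluding images with fewer than 100 cells. Before this, the cells (20,000 per well, 96-well plates) were co-exposed for 24 h to compound at 10 μM and an NRF2 activator at 30 nM with ≤0.1% DMSO, in three replicate plates. Each value is the median over replicates of the per-plate modified Z-score of GFP intensity. That score was scaled with 1.4826 × median absolute deviation.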

SMILES	Srxn1-GFP intensity median modified Z-score
CCCCc1c(O)n(-c2ccccc2)n(-c2ccccc2)c1=O [euspeclibcmpd235]	inactive: 0.115
CC=C(C1=CC(=O)C=CC1=O)c1ccccc1 [euspeclibcmpd1643]	inactive: 1.51
CC(O)(P(=O)(O)O)P(=O)(O)O [euspeclibcmpd2239]	inactive: 0.261
CCC1NC(=O)c2cc(S(N)(=O)=O)c(Cl)cc2N1 (configuration not stated) [euspeclibcmpd628]	inactive: -0.198
CCCCOc1ccc(CC(O)=NO)cc1 [euspeclibcmpd1071]	inactive: 1.55
Cc1cnc(C(=O)NCCc2ccc(S(=O)(=O)NC(=O)NC3CCCCC3)cc2)cn1 [euspeclibcmpd782]	inactive: 0.535
NC(=O)COC(=O)c1ccccc1Nc1cccc(C(F)(F)F)c1	inactive: 1.26
CN1CCC(=C2c3ccccc3CCc3sccc32)CC1 [euspeclibcmpd488]	inactive: 0.0303
CCN(CC)CCCC(C)N=c1c2ccc(Cl)cc2[nH]c2ccc(OC)cc12 (configuration not stated) [euspeclibcmpd261]	active: 19.2
CN1CCOC(c2ccccc2)c2ccccc2C1 (configuration not stated) [euspeclibcmpd394]	inactive: 0.156
CCCCNc1ccc(C(=O)OCCN(C)C)cc1 [euspeclibcmpd287]	inactive: -0.0522
COc1cc2occ(-c3ccccc3)c(=O)c2c(OC)c1C [euspeclibcmpd2367]	active: 3.02
CC1(C)CC[C@]2(C(=O)O)CC[C@]3(C)C(=CCC4[C@@]5(C)CC[C@@H](O)C(C)(C)C5CC[C@]43C)C2C1 (some centres not stated) [euspeclibcmpd1603]	active: 4.09
COc1c2ccoc2cc2oc(=O)ccc12 [euspeclibcmpd1016]	inactive: -0.217
COC(=O)C1=C(C)N=C(C)C(C(=O)OCCN2CCN(C(c3ccccc3)c3ccccc3)CC2)C1c1cccc([N+](=O)[O-])c1 (configuration not stated) [euspeclibcmpd869]	active: 5.13
CN(C)CCOC(c1ccc(Cl)cc1)c1ccccn1 (configuration not stated) [euspeclibcmpd45]	inactive: 0.615
Cc1ccccc1C(OCCN(C)C)c1ccccc1 (configuration not stated) [euspeclibcmpd219]	inactive: -0.229
CCOC(=O)C1=CC(OC(CC)CC)[C@H](NC(C)=O)[C@@H](N)C1 (some centres not stated) [euspeclibcmpd2394]	inactive: -0.535
CN1CCN(c2c(F)cc3c(=O)c(C(=O)O)cn4c3c2SCC4)CC1 [euspeclibcmpd1298]	inactive: 0.0815
Cc1ccc(NC(=O)c2ccc(CN3CCN(C)CC3)cc2)cc1N=c1nc(-c2cccnc2)cc[nH]1 [euspeclibcmpd1311]	active: 4.53
O=C(O)c1cccnc1C(=O)O [euspeclibcmpd2013]	inactive: -0.445
CC(=O)Nc1ccc(C(=O)O)cc1 [euspeclibcmpd1101]	inactive: 0.636
CCOc1ccc(NC(C)=O)cc1 [euspeclibcmpd324]	inactive: 0.0574
CN1CCC[C@@H]1CCO[C@](C)(c1ccccc1)c1ccc(Cl)cc1 [euspeclibcmpd66]	inactive: 0.909

SMILES	Srxn1-GFP intensity median modified Z-score
CCOC(=O)[N-]c1c[n+](N2CCOCC2)no1 [euspeclibcmpd1299]	inactive: -0.135
CC[N+](CC)(CC)CCOc1cccc(OCC[N+](CC)(CC)CC)c1OCC[N+](CC)(CC)CC [euspeclibcmpd137]	inactive: -0.0661
CC(C)(C)NCC(O)c1cc(O)cc(O)c1 (configuration not stated) [euspeclibcmpd286]	inactive: -0.0995
COc1cc(OC)c(-c2c(OC)cc(OC)cc2OC)c(OC)c1 [euspeclibcmpd1350]	inactive: -0.437
O=C(O)C(O)[C@@](O)(Cc1ccc(O)cc1)C(=O)O (some centres not stated) [euspeclibcmpd1612]	inactive: -0.288
CC/C(=C(\c1ccccc1)c1ccc(OCCN(C)C)cc1)c1ccccc1 [euspeclibcmpd285]	active: 43.4
CCc1oc2ccccc2c1C(=O)c1cc(Br)c(O)c(Br)c1 [euspeclibcmpd888]	active: 2.7
COc1cc2oc3cc(OC)c(OC)c(CC=C(C)C)c3c(=O)c2c(OC)c1CC=C(C)C [euspeclibcmpd1951]	active: 13.2
NCc1ccc(S(N)(=O)=O)cc1 [euspeclibcmpd173]	inactive: -0.643
O=c1c(O)c(-c2ccc(O)c(O)c2)oc2cc(O)cc(O)c12 [euspeclibcmpd1479]	inactive: -0.225
CC1CCCC(C)N1 (configuration not stated) [euspeclibcmpd2195]	inactive: -0.415
COCCc1ccc(OCC(O)CNC(C)C)cc1 (configuration not stated) [euspeclibcmpd198]	inactive: 0.381
CC(C)(C)NC[C@H](O)COc1ccccc1C1CCCC1 [euspeclibcmpd818]	inactive: -0.464
COc1ccc(C(=O)c2ccccc2O)c(O)c1 [euspeclibcmpd100]	inactive: 1.63
CC(C)Cc1ccc(C(C)C(=O)O)cc1 (configuration not stated) [euspeclibcmpd2142]	inactive: -0.249
COc1ccc(CN2CCN(C(c3ccc(F)cc3)c3ccc(F)cc3)CC2)c(OC)c1OC [euspeclibcmpd1081]	inactive: -0.38
OCc1ccccn1 [euspeclibcmpd1277]	inactive: 0.0555
CC1COc2c(N3CCN(C)CC3)c(F)cc3c(=O)c(C(=O)O)cn1c23 (configuration not stated) [euspeclibcmpd2404]	inactive: 0.0498
CN1CCN(c2cc3c(cc2F)c(=O)c(C(=O)O)cn3-c2ccc(F)cc2)CC1 [euspeclibcmpd484]	inactive: -0.24
CC1(C)SC2C(NC(=O)Cc3ccccc3)C(=O)N2C1C(=O)O (configuration not stated) [euspeclibcmpd2283]	inactive: 0.484
CC(=O)SCC(Cc1ccccc1)C(=O)NCC(=O)OCc1ccccc1 (configuration not stated) [euspeclibcmpd1089]	inactive: -0.455
CC(=O)O[C@H]1CC[C@@]2(C)C(=CCC3C2CC[C@@]2(C)C3CC[C@@H]2C(C)CCCC(C)C)C1 (some centres not stated) [euspeclibcmpd2217]	inactive: -0.115
CC(C)=CCCC1(C)C=Cc2c(O)c3c(c(CC=C(C)C)c2O1)OC12C(CC4CC1C(C)(C)OC2(C=CC(C)C(=O)O)C4O)C3=O (configuration not stated) [euspeclibcmpd1941]	active: 50.9
